# Laboratory results: PubChem BioAssay AID1345082 (National Center for Advancing Translational Sciences (NCATS), 2018)
# Among all 94,000 compounds or so, about 4,000 (4.3%) were called active. Inconclusive results, whose numbers are uncertain, are shown with a selection of clear calls. Calls come from the whole dose curve; as a rule, active = well fitted inhibition curve with a large enough effect; inconclusive = small, poorly fitted or top-dose-only effect; inactive = no such curve, though single readings can be large or run the other way. Where the call is inconclusive, the potency comes from a doubtful curve fit.
# Test: Cytotoxic Profiling in NIH 3T3 Cell Line of Diverse Libraries Using Quantitative High-Throughput Screening; note: nearly all actives have a fitted effect of over 55% in size
# Conditions: NIH 3T3 viability, CellTiter-Glo ATP luminescence, 48-72 h; activity change, negative = cytotoxicity: at 96.7 µM (top of the series) unless noted; series mostly up to 96.7 µM
# Summary of the method: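 Cytotoxicity was measured by CellTiter-Glo ATP luminescence after 48 or 72 h compound exposure at 37 °C. Mouse NIH 3T3 fibroblasts were seeded at 400 cells/well and dosed by 23 nL pin transfer.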
# % is set by controls: 0 for no effect and ±100 for the full control effect; potency is the fitted concentration of half-maximal effect; tags give direction and shape of the fitted curve.
SMILES,Potency,"activity change, negative = cytotoxicity",outcome
COc1ccc(-c2cc(-c3ccc4cn[nH]c4c3)cn3cncc23)cn1,active: 44.7 µM,–,–
CCOCCN1C(=O)COC[C@@H]1[C@H](O)c1ccc(NC(=O)c2cccc(C#N)c2)cc1,–,inactive: -0.59% [at 174 µM],–
Cc1ccc(-c2cc3c(=O)n(CCNC(=O)c4cc(F)ccc4F)ccn3n2)cc1C,"inconclusive: 39.8 µM [inhibitor, partial curve]",–,–
O=C(NCC1CN(C(=O)Cc2ccc3c(c2)OCO3)CC12CN(c1ccccc1)C2)c1ccccc1 (centres undefined),"inconclusive: 70.8 µM [inhibitor, single point]",–,–
CC(C)Oc1ccc(CNC(=O)c2cc(-c3ccncc3)cn2C)cc1,"inconclusive: 50.1 µM [inhibitor, partial curve, poor fit]",–,–
Cc1ccc(NC(=O)N2c3ccccc3CC2c2nc(C3CC3)no2)c(C)c1 (centres undefined),"inconclusive: 50.1 µM [inhibitor, partial curve, poor fit]",–,–
CN(CCOc1cccc(Cl)c1)C(=O)c1cccc(CCC(C)(C)O)c1,"inconclusive: 50.1 µM [inhibitor, partial curve]",–,–
COc1ccc(OC)c2nc(-c3cccc(Cl)c3)c(CN3CCC(O)CC3)cc12,"inconclusive: 31.6 µM [inhibitor, partial curve]",–,–
CC(=O)Nc1cc(-c2cn(C)c(=O)n3cc(CN4CC[S+](=O)([O-])CC4)nc23)ccn1,active: 100 µM,–,–
O=S1(=O)NC2(CCCN(CCc3ccccc3)C2)COc2ccccc21 (centres undefined),–,inactive: -16.5%,–
C[C@@]12CO[C@H](c3ccccc3)C[C@@H]1C[C@H](N1CCN(Cc3ccnc4ccccc34)CC1)C2,"inconclusive: 3.16 µM [inhibitor, full curve, poor fit]",–,–
CN1C(=O)[C@@H]2C[C@@H](O)CN2C2(CN(Cc3ccoc3)C2)C1=O,"inconclusive: 39.8 µM [inhibitor, full curve]",–,–
CCCCOC(=O)N1CCC2(CC1)NC(=O)[C@H](O)[C@@H]2C(=O)OCC,"inconclusive: 50.1 µM [inhibitor, partial curve, poor fit]",–,–
O=C1N(c2ccccc2)C[C@H]2CN(C3CCOCC3)CCN12,–,–,inactive [at 138 µM]
O=C(c1ccoc1)N1CCCN(C2CCC3(CCNCC3)CC2)CC1,–,inactive: 0.0307%,–
CC(C)N1C(=O)CO[C@H]2CCN(Cc3ccccc3Cl)CC[C@@H]21,"inconclusive: 11.2 µM [inhibitor, full curve, poor fit]",–,–
Cc1nn(-c2ccc(C(F)(F)F)cc2)c(C)c1[C@@H]1C=C[C@@H](NC(=O)C2CCCCC2)C1,"inconclusive: 11.2 µM [inhibitor, full curve, poor fit]",–,–
CNC(=O)c1nc2cccnc2n(C2CC2)c1=O,–,–,inactive [at 138 µM]
CCCc1ccc(S(=O)(=O)N2C[C@@H]3C(=O)N(C(CC)c4cccs4)C(=O)[C@@H]3C2)cc1 (some centres undefined),–,inactive: -25.3%,–
COC1CCC(C(=O)NCC2COc3ncncc3C(=O)N2Cc2ccccc2)CC1 (centres undefined),"inconclusive: 89.1 µM [inhibitor, partial curve]",–,–
O=C(Nc1ccc2c(c1)OCCO2)N1CCCC(Cc2noc(-c3ccncc3)n2)C1 (centres undefined),"inconclusive: 11.2 µM [inhibitor, full curve, poor fit]",–,–
O=C(NCCc1ccc(Cl)cc1)C1CCCN(c2nc3ncccc3o2)C1 (centres undefined),"inconclusive: 39.8 µM [inhibitor, partial curve, poor fit]",–,–

SMILES,Potency,"activity change, negative = cytotoxicity",outcome
COc1ccc(OCC(O)CN2CCC(=O)N(CC3CC3)Cc3cc(F)ccc32)cc1 (centres undefined),"inconclusive: 50.1 µM [inhibitor, partial curve, poor fit]",–,–
COc1cccc(N2C(=O)N[C@@H]3CCN(C(=O)c4cccs4)[C@@H]3C2=O)c1,–,inactive: -11.6% [at 174 µM],–
C=CCOc1cccc(-c2nc(C(=O)N(C)Cc3ccccc3)cs2)c1,"inconclusive: 44.7 µM [inhibitor, partial curve, poor fit]",–,–
c1ccc(-c2noc(Nc3ccc4c(c3)OCCO4)n2)cc1,"inconclusive: 50.1 µM [inhibitor, partial curve, poor fit]",–,–
COCCN1C(=O)c2ccccc2C(C(=O)Nc2ccccc2OC)C12CCCC2 (centres undefined),–,inactive: -14.9%,–
O=C(c1ccccc1Cl)N1CCC(C(=O)N2CCCC2c2nc3ccncc3[nH]2)CC1 (centres undefined),–,–,inactive
COc1ccc(-c2nc(CC3CCN(C(=O)c4cc(C)n(C)n4)C3)no2)cc1 (centres undefined),"inconclusive: 44.7 µM [inhibitor, partial curve, poor fit]",–,–
O=Cc1ccccc1-c1cccc(Cl)c1,"inconclusive: 100 µM [inhibitor, partial curve, poor fit]",–,–
COCc1nc2nc(-c3ccccc3)c(-c3ccnc(OC)c3)cc2n1C,"inconclusive: 63.1 µM [inhibitor, partial curve, poor fit]",–,–
Cc1nn(-c2ccc(C(C)(C)C)cc2)c(C)c1[C@@H]1C=C[C@@H](NC(=O)CCCC(=O)O)C1,"inconclusive: 100 µM [inhibitor, partial curve, poor fit]",–,–
O=C1COCC2(CN1Cc1ccccc1)CN(c1cccnc1)C2,active: 89.1 µM,–,–
CCn1cc(-c2ccc(F)cc2)cc1C(=O)N1CCCCCC1,"inconclusive: 50.1 µM [inhibitor, partial curve, poor fit]",–,–
O=C(O)c1cccc2c1CCN2S(=O)(=O)c1ccccc1F,"inconclusive: 56.2 µM [inhibitor, partial curve, poor fit]",–,–
O=C(C1CCN(Cc2ccccc2-c2cccnc2)CC1)N1CCCCC1,"inconclusive: 50.1 µM [inhibitor, partial curve, poor fit]",–,–
CN1CC(=O)N(c2ccccc2)Cc2c(NCCCc3ccccc3)ncnc21,"inconclusive: 44.7 µM [inhibitor, partial curve, poor fit]",–,–
COc1ccccc1N1CCCc2ncc(C(=O)NCCc3ccccc3)cc21,"inconclusive: 112 µM [inhibitor, single point]",–,–
COc1ccc(C(=O)N2CCC(n3cc(-c4nc(C5CC5)no4)nn3)C2)cc1 (centres undefined),"inconclusive: 39.8 µM [inhibitor, partial curve, poor fit]",–,–
CNC(=O)c1cc(C2CC2)nc2c1c(C1CCN([S+](=O)([O-])c3ccccc3)CC1)nn2C,"inconclusive: 5.01 µM [inhibitor, full curve, poor fit]",–,–
Cc1cc(F)ccc1-c1[nH]nc2ncc(-c3cccnc3)nc12,–,inactive: -29.3% [at 138 µM],–
c1ccc(-c2nnc3ccc(NC4CCCCC4)nn23)nc1,"inconclusive: 50.1 µM [inhibitor, partial curve]",–,–
Cc1noc(-c2cccc(OC3CN(C(=O)NCc4ccc(F)cc4)C3)c2)n1,"inconclusive: 22.4 µM [inhibitor, full curve]",–,–
COc1ccc(-c2cc(N3CCN(C(=O)c4ccccc4Br)CC3)n[nH]2)cc1,"inconclusive: 39.8 µM [inhibitor, partial curve, poor fit]",–,–

SMILES,Potency,"activity change, negative = cytotoxicity",outcome
CSCC(=O)N[C@H]1CCN2C(=O)c3ccc(Cl)cc3NC(=O)[C@@H]2C1,"inconclusive: 126 µM [inhibitor, single point]",–,–
CCc1[nH]ncc1C(=O)N[C@H]1CC[C@H](Nc2nccc(-c3ccccn3)n2)C1,"inconclusive: 20 µM [inhibitor, full curve, poor fit]",–,–
Cc1ccc(NC(=O)N2C[C@@H](F)C[C@H]2C(=O)N2CCc3ccccc3C2)cc1Cl,"inconclusive: 50.1 µM [inhibitor, partial curve, poor fit]",–,–
Fc1ccc(CN2CC[C@H](c3nnc(Cc4ccccc4)o3)C2)cc1F,"inconclusive: 112 µM [inhibitor, single point]",–,–
CN1CCN(Cc2nc(C3(O)CCN(Cc4ccccc4F)CC3)cs2)CC1,"inconclusive: 79.4 µM [inhibitor, partial curve]",–,–
Cc1cccc(-c2cccc(CN3CCC(NC(=O)c4ccc(C(F)(F)F)cc4)CC3)c2)c1,–,inactive: -11.4%,–
CC(C)c1nc2c(c(-c3ccc(O)cc3)n1)CCN(Cc1ccccn1)CC2,–,inactive: -21.3%,–
CC(C(=O)N1CCCN(c2cc(-c3ccccc3)[nH]n2)CC1)c1ccccc1 (centres undefined),"inconclusive: 39.8 µM [inhibitor, partial curve, poor fit]",–,–
O=C(NCc1cccs1)c1ccc(CN2C(=O)NC3(CCOCC3)C2=O)cc1,–,inactive: -17.5%,–
CCc1nc2c(c(-c3ccc(O)cc3)n1)CN(Cc1cccc3ccccc13)CC2,"inconclusive: 70.8 µM [inhibitor, partial curve, poor fit]",–,–
COc1ccc(NC(=O)Cn2c(-c3ccccc3)nc(C)c(CCO)c2=O)cc1Cl,"inconclusive: 39.8 µM [inhibitor, partial curve]",–,–
O=C1Nc2ccccc2C2(CCN(C(=O)c3ccccc3)C2)O1 (centres undefined),"inconclusive: 70.8 µM [inhibitor, partial curve, poor fit]",–,–
O=C1NC2(CCN([S+](=O)([O-])c3cccs3)C2)Oc2ccccc21 (centres undefined),–,inactive: -20.4%,–
O=C(O)Cn1ccc2cc(OCc3cccc(-c4ccncc4)c3)cnc21,"inconclusive: 56.2 µM [inhibitor, partial curve, poor fit]",–,–
O=C1c2cnc(-c3cccc(CO)c3)nc2OCCN1c1ccccc1,active: 39.8 µM,–,–
COc1ccc(CN2CCC3(C2)C(=NC2CCCCC2)NC(=O)N3c2cccnc2)cc1 (centres undefined),active: 31.6 µM,–,–
Cc1cc(C(=O)N2CCC3(CC2)CC(CN2CCOCC2)N(C)C3)n(C)n1 (centres undefined),–,inactive: 1.94%,–
O=C(NC1CCN(c2cc(-c3ccccc3)[nH]n2)CC1)c1ccc(Cl)cc1,active: 20 µM,–,–
COc1cc(-c2onc(C)c2C(=O)NCCCSC)cc(OC)c1OC,–,inactive: 4.98%,–
Cc1ccccc1NC(=O)N1CCC(CCNC(=O)c2cc(F)ccc2F)CC1,–,inactive: -21.8%,–
